# Source: the supplement of paper PMC7826260
# Some of the results follow. Viral Rep nickase domains cut single-stranded DNA in vitro (1 h at 37 °C, 3 µM enzyme); the outer parts of the 90-letter strands are left off. A value is the log2 ratio of uncut reads to the pool without enzyme; the lower, the more was cut; hits are not called. Reads are scaled to the total; uncut strands gain when others are lost, and binding without cutting may add a little.
# Experiments:
# Experiment in all cases: uncleaved DNA left, log2 of reads against the no-enzyme library (log2 ratio); higher = less cleavage (more negative = more Rep cleavage of the k-mer); sequences stand for … in CTCGTCCG…ACCGGAGA
# [1] = tested on: T1, Rep nickase domain of Muscovy duck circovirus
# T1 sequence (protein, residues 1-111, tag omitted): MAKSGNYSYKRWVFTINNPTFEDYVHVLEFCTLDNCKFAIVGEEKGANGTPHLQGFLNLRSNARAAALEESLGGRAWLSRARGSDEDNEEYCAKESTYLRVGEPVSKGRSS
# Description: (§1)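 A pool of 90-nt single-stranded DNAs with seven random bases just before the constant AC of the nick site (name = the seven bases) was cut by 3 µM recombinant His6-SUMO-tagged Rep nickase domain (300 nM DNA, 50 mM HEPES pH 8.0, 50 mM NaCl, 1 mM MnCl2, 1 h, 37 °C, three replicates). Uncut DNA was amplified and sequenced.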
# [2] = tested on: T2, Rep nickase domain of banana bunchy top virus
# T2 sequence (protein, residues 1-94, tag omitted): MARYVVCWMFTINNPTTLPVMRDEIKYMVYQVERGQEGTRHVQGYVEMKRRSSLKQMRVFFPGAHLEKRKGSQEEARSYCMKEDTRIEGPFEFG
# Description: as §1
# [3] = tested on: T3, Rep nickase domain of cabbage leaf curl virus
# T3 sequence (protein, residues 1-116, tag omitted): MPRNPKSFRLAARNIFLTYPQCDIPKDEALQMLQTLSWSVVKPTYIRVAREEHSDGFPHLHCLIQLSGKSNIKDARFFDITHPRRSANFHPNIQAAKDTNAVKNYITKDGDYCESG
# Description: as §1
# [4] = tested on: T4, Rep nickase domain of chickpea chlorotic dwarf virus
# T4 sequence (protein, residues 1-124, tag omitted): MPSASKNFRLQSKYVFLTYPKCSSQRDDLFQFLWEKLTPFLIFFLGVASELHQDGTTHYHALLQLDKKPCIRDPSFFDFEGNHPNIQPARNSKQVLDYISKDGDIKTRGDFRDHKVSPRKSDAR
# Description: as §1
# [5] = tested on: T5, Rep nickase domain of faba bean necrotic yellows virus
# T5 sequence (protein, residues 1-98, tag omitted): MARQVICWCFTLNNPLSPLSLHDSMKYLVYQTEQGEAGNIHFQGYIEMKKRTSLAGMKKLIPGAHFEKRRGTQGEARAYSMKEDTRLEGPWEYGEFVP
# Description: as §1
# [6] = tested on: T6, Rep nickase domain of maize striate mosaic virus
# T6 sequence (protein, residues 1-117, tag omitted): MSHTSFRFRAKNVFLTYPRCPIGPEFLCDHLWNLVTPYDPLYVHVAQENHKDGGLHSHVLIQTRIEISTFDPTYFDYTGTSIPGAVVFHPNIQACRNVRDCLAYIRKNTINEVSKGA
# Description: as §1
# [7] = tested on: T7, Rep nickase domain of porcine circovirus 2
# T7 sequence (protein, residues 2-116, tag omitted): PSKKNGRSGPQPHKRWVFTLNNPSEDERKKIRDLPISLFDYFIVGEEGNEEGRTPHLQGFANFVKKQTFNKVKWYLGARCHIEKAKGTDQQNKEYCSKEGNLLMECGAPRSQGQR
# Description: as §1
# [8] = tested on: T8, Rep nickase domain of tomato yellow leaf curl virus
# T8 sequence (protein, residues 1-136, tag omitted): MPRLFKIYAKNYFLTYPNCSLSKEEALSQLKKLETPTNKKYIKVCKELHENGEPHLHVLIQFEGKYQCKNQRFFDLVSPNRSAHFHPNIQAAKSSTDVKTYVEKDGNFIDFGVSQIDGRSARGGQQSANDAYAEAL
# Description: as §1
# [9] = tested on: T9, Rep nickase domain of wheat dwarf virus
# T9 sequence (protein, residues 1-137, tag omitted): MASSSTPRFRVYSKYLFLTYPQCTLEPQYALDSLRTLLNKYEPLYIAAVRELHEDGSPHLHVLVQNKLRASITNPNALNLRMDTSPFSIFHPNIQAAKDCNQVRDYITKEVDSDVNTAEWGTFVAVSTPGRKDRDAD
# Description: as §1
Sequence,uncleaved DNA left (log2) [1],uncleaved DNA left (log2) [2],uncleaved DNA left (log2) [3],uncleaved DNA left (log2) [4],uncleaved DNA left (log2) [5],uncleaved DNA left (log2) [6],uncleaved DNA left (log2) [7],uncleaved DNA left (log2) [8],uncleaved DNA left (log2) [9]
ATTGCGA,0.0691,0.0412,0.163,1.24,0.0661,1.29,0.0996,0.0262,-0.0175
CCCGCGA,-0.0634,-0.222,-0.855,-0.4,-0.00513,-0.76,-0.0755,-0.157,-0.419
CATCCCC,0.00823,-0.0472,-0.031,-0.371,-0.0498,-0.229,-0.322,-0.21,-0.0326
TTGTACC,-0.508,-0.145,-0.0382,-0.778,-0.131,-0.354,-2.81,-0.107,-0.178
GGATCCT,0.00184,0.107,0.494,0.958,-0.0349,1.8,-0.209,-0.00275,0.0436
GGGCCTT,0.0778,0.0508,0.829,1.99,0.0938,2.31,0.142,0.0804,0.188
CCGACTG,-0.222,-0.0984,-0.00667,0.543,-0.0943,1.66,-0.0713,-0.281,-0.0308
TTACGAA,-0.0429,-0.0993,-0.00127,-1.04,-0.0228,-0.496,-0.125,-0.0608,-0.0798
CCCCCAA,-0.306,-0.109,-0.0445,-0.624,-0.148,-0.856,-0.403,-0.251,-0.228
CCTTTAC,-0.0458,-0.142,-0.357,-2.01,-0.0856,-0.923,-0.0439,-0.172,-0.106
TGACGCA,0.0663,0.0177,0.0505,0.259,0.0769,1.18,-0.103,0.0685,0.0657
CCGATAC,-0.088,-0.0948,-0.0463,-0.39,-0.078,-0.768,0.0631,-0.188,-0.163
TATGCGG,0.0945,0.0539,0.369,0.707,-0.106,0.551,0.114,0.0195,0.0503
CTCCGAT,-0.00465,-0.125,0.166,0.426,-0.0141,0.625,0.143,-0.105,-0.0283
GCAGCCA,0.147,0.0931,0.00392,-0.274,-0.0244,-0.121,0.0729,0.0958,0.0359
ACGTCCG,-0.0886,-0.0395,-0.806,-0.387,0.0189,-1.12,0.134,-0.0923,-0.103
TAGTTCC,-0.0412,-0.0293,0.0987,-0.325,-0.225,0.36,-3.17,0.0757,-0.0164
ACAGAGT,0.113,-0.0375,-0.377,-0.792,0.049,-1.06,0.102,0.0532,0.0604
AAGGCAT,0.0893,0.161,0.396,1.66,-0.0737,1.83,0.135,-0.104,0.107
CGACACA,-0.00573,-0.0158,-0.0062,0.331,-0.0233,1.18,0.0538,-0.0609,0.127
TGGTTAG,0.0925,0.128,-0.591,-0.331,0.051,-0.879,0.143,0.148,0.0224
GCCGAGA,0.0664,0.01,0.932,1.89,0.0204,2.2,0.323,0.0812,0.141
ATATTGG,0.11,0.0486,-0.602,-0.532,0.159,-1.05,0.243,0.105,0.0779
GTCTAAG,0.222,0.26,0.379,0.757,0.239,0.625,0.299,0.258,0.195
CAGCGCT,-0.173,-0.249,-0.558,-0.979,-0.117,-0.621,-1.55,-0.214,-0.336
AGGTCGT,-0.0947,0.019,-0.136,-0.299,-0.0682,-0.586,-0.38,0.0609,0.085
CGTGATA,-0.0577,-0.0565,0.105,0.16,-0.00661,0.876,-0.14,0.0118,-0.0354
AGGCGGC,0.0235,0.00103,-0.0862,0.0316,-0.00566,-0.236,0.041,-0.0988,-0.0897
